Here are results for 84 compounds from ChEMBL document CHEMBL4888484, “Replenishing the malaria drug discovery pipeline: Screening and hit evaluation of the MMV Hit Generation Library 1 (HGL1) against asexual blood stage Plasmodium falciparum ,using a nano luciferase reporter read-out” (2022).

In all, about 150,000 compounds went through this assay and about 540 (0.36%) showed an effect of 50% or more. The list shows a part of the results.

The test concerns Plasmodium falciparum. In words: Primary screen in NF54 nanoGlo assay, in single point, at 2uM, 72h; a lower Z score goes with more inhibition. The test is classed as functional, Erythrocyte. The following applies: timepoint 72 hour.
Consider `CC1C(=O)CCN(CCc2ccccc2)C1C` (stereo not drawn), for which the “% Inhibition” value is -10% and the Z score is reported as 1.24.
The corresponding values for `CC(=O)N(CCN1CCCCC1)[C@H]1CCCN(Cc2cccc(Cl)c2)C1` are 14% and -1.89.
On to `CCOC(=O)N1CCC(Nc2cc(-c3ncco3)ccc2C)CC1`, for which the “% Inhibition” value is recorded as 22% and the Z score was -2.52.
As for `COc1ccc(OC)c(NC(=O)Cn2c(=O)c3c(C(=O)N4CCCCC4)cc(C)nc3n(C)c2=O)c1`, the “% Inhibition” value turned out to be 8% and the Z score is on record as -1.07.
For the compound `COc1ccc(NC(=O)c2ccoc2C)cc1S(=O)(=O)N1CCCCC1`, the “% Inhibition” value was -8% and the Z score is given as 1.22.
The corresponding values for `COc1ccc(OCc2cc(C(=O)N[C@@H](C)Cc3ccccn3)no2)c2ccccc12` are -5% and 0.72.
Regarding `Cc1ccc(NC(=O)c2ccc3c(c2)[C@@H](O)CCCCCN3C)cc1`, the “% Inhibition” value was -15% and the Z score was 1.77.
On to `CCCOc1ccc(-c2nnc3n2CC[C@H](C(=O)OC)C3)cc1OC`, for which the “% Inhibition” value is 3% and the Z score is reported as -0.38.
For the compound `O=C1C[C@@H](c2ccccc2)n2nc(NC(=O)c3ccc(Cl)cc3Cl)nc2N1`, the “% Inhibition” value is recorded as -7% and the Z score was 0.73.
In the case of `Cc1[nH]c2ccnn2c(=O)c1CC(=O)N(CC1CC1)C1CCCCC1`, the “% Inhibition” value is 30% and the Z score was -3.41.
For the compound `CCOCCCN(Cc1ccco1)S(=O)(=O)c1cc2c(cc1C)NC(=O)CO2`, the “% Inhibition” value is given as -15% and the Z score is 1.82.
For the compound `Cc1nnsc1CN(C)C(=O)CN1C(=O)COc2cccnc21`, the “% Inhibition” value was -9% and the Z score is recorded as 1.45.
In the case of `CC(C)N1CCC(NCc2cn(C(C)(C)C)nn2)C1c1ccc(Cl)c(F)c1` (stereo not drawn), the “% Inhibition” value is listed as -6% and the Z score came to 0.56.
On to `O=C(NC[C@H]1CCCC1(F)F)c1ccc2c(c1)COC2`, for which the “% Inhibition” value was -6% and the Z score is listed as 1.14.
The corresponding values for `Cc1noc(CCNC(=O)NC[C@H](O)c2cccs2)n1` are -2% and 0.19.
For `COc1ncc(Br)c(NCCc2cc[nH]n2)n1`, the “% Inhibition” value is on record as -16% and the Z score was 2.12.
The corresponding values for `CC[C@H](N)C(=O)Nc1cccc(C(=O)N(C)C)c1C` are -11% and 1.87.
The like results for `Cc1noc(C)c1S(=O)(=O)NCc1cccnc1N1CCCCCCC1` were, in that order, -19% and 1.75.
On to `COC(=O)Nc1cccc(OS(=O)(=O)CC2(OC)CCCC2)c1`, for which the “% Inhibition” value is on record as 2% and the Z score is recorded as -0.27.
Consider `O=C(NCc1cccnc1-c1ccncc1)c1cnccn1`, for which the “% Inhibition” value is -11% and the Z score turned out to be 1.24.
The like results for `CCn1cc(S(=O)(=O)Nc2ccc(-c3nc4ccc(Cl)cc4s3)c(Cl)c2)cn1` were, in that order, -9% and 1.1.
The like results for `C[C@@H](Cc1cccs1)NC(=O)Cc1n[nH]c(=O)[nH]1` were, in that order, 7% and -0.87.
The like results for `Cc1cccc(NC(=O)CCS(=O)(=O)c2ccc3c(c2)CC(=O)N3C)c1C` were, in that order, -11% and 1.45.
In the case of `COc1nscc1CN(C)C(=O)Cc1ccco1`, the “% Inhibition” value was found to be 16% and the Z score was -2.05.
`O=S(=O)(Nc1nc2ccccc2nc1Nc1ccc2c(c1)OCO2)c1ccc(Cl)cc1`: the “% Inhibition” value was -3% and the Z score was 0.41.
The corresponding values for `COc1cc(NC(=O)N[C@H]2CCCc3occc32)ncn1` are -7% and 0.72.
The corresponding values for `Cc1ccc(CN(CCN2CCOCC2)C[C@H](O)COCc2ccco2)c(C)c1` are -6% and 0.81.
In the case of `CCNc1ccnc(NCCc2cc(O)nc(C)n2)n1`, the “% Inhibition” value was -4% and the Z score was determined as 0.56.
The like results for `Fc1ccccc1-c1noc(NCCc2ccc(Cl)cc2)n1` were, in that order, -14% and 1.24.
The like results for `CC(C)c1cc(C(=O)N(C)C2CCCCC2S(C)(=O)=O)n[nH]1` (stereo not drawn) were, in that order, -15% and 1.77.
`CC(C)(C)OC(=O)N1CCC[C@H](Cn2ccc3ccccc32)C1`: the “% Inhibition” value is -6% and the Z score is recorded as 0.67.
Regarding `CC1(C)CCN1C(=O)c1cc(C2CC2)nc2ccccc12`, the “% Inhibition” value was found to be 3% and the Z score is -0.35.
The like results for `OC[C@H](CN1CCOCC1)Nc1nccs1` were, in that order, 0% and 0.01.
The corresponding values for `Cc1nc2c(s1)CCC[C@@H]2NC(=O)COCC(F)(F)C(F)F` are 9% and -1.3.
The like results for `COC(C)(C)c1noc(-c2n[nH]c3ccccc23)n1` were, in that order, -12% and 1.64.
Consider `CCCOCC(=O)N1CCC[C@H](c2cc(N3CCOCC3)nc(C)n2)C1`, for which the “% Inhibition” value is given as -5% and the Z score was found to be 0.58.
The like results for `O=C(CN1CCCc2nc(-c3ccncc3)ncc2C1=O)NCCN1CCOCC1` were, in that order, -12% and 1.89.
The corresponding values for `CC(=O)NCc1cc2n(n1)CCN([C@H]1CCN(Cc3ccccc3)C1)C2` are -4% and 0.83.
The like results for `CCc1cc(C(=O)NC[C@H]2CCCN2C2CCCCC2)n(C)n1` were, in that order, -4% and 0.8.
With `Cc1nc(NCCCOC(C)C)nc2[nH]ncc12`, the “% Inhibition” value was -16% and the Z score stood at 2.28.
The like results for `CC[C@H]1CN(C(=O)c2ccc(-c3ccccc3)[nH]2)CCN1CC(F)F` were, in that order, -6% and 0.91.
In the case of `C#Cc1cccc(NC(=O)NCc2cn(C(C)(C)C)c(=O)[nH]c2=O)c1`, the “% Inhibition” value is reported as -5% and the Z score came to 0.82.
For `CC1(N(C(=O)[C@H]2CCCO2)c2ccccc2)CC1`, the “% Inhibition” value is 0% and the Z score was -0.1.
Turning to `O=C(c1ccc(F)cc1)N1CCc2nc(N3CCCCC3)nc(Oc3ccc(F)c(F)c3)c2C1`, the “% Inhibition” value was -14% and the Z score is given as 1.39.
The corresponding values for `Nc1[nH]nc(C(=O)N2CCc3n[nH]cc3C2)c1Cl` are 1% and -0.15.
`Cc1nccnc1C(=O)NC[C@H]1CCC[C@@H](CO)C1`: the “% Inhibition” value was 2% and the Z score is -0.29.
Take `CCCc1ccc(CN2CCC[C@](C)(C#N)C2)o1`: the “% Inhibition” value is -17% and the Z score stood at 1.79.
Take `COCc1cccc(C(=O)Nc2ccc(-c3nnn[nH]3)cc2)c1`: the “% Inhibition” value is listed as 7% and the Z score was -1.14.
The corresponding values for `Cc1cc(C)nc(-n2cc(C(=O)N(C)c3ccccc3)c(C(C)C)n2)n1` are -16% and 3.03.
The like results for `Cc1cc(C(=O)NC2CCN(Cc3ccccc3)C(C)C2)c2cnn(C)c2n1` (stereo not drawn) were, in that order, -11% and 1.67.
With `COCc1ccccc1-c1noc(C[C@H]2CNCCS2(=O)=O)n1`, the “% Inhibition” value is -7% and the Z score is listed as 0.87.
The corresponding values for `COc1ccc(-n2ncc(Oc3ccc4c(c3)CCC4)c(Nc3cccc(C(=O)N(C)Cc4ccccc4)c3)c2=O)cc1` are 6% and -1.09.
As to `O=C(NCc1cccnc1-c1ccncc1)NC1CCOCC1`, the “% Inhibition” value is listed as -9% and the Z score stood at 1.05.
As to `CCc1ccc(S(=O)(=O)N[C@@H]2CNC(=O)C2)s1`, the “% Inhibition” value worked out at 5% and the Z score is -0.69.
The like results for `CCNc1nc(C)c(C(=O)N2C[C@H](C(C)C)[C@@H](N(C)C)C2)s1` were, in that order, 0% and 0.02.
The corresponding values for `CCCCCN(CCO)Cc1noc(Cc2ccccc2)n1` are -5% and 0.7.
The corresponding values for `CN(C)C[C@]1(O)CCN(c2nc3cccc(F)c3s2)C1` are -4% and 0.52.
Take `N#CC1(NC(=O)CN2CCN(C(=O)C3CCCC3)CC2)CCCC1`: the “% Inhibition” value is recorded as -9% and the Z score stood at 1.03.
The corresponding values for `Cc1nn(C(C)(C)C)c(C)c1[C@@H]1CC(=O)Nc2n[nH]c(C3CCC3)c21` are 2% and -0.24.
For the compound `CCOc1ccccc1-c1nccn1CCN1CCCC1=O`, the “% Inhibition” value is 8% and the Z score is -1.16.
With `O=C(N[C@H]1CCCc2ccccc21)c1cc2n(n1)CCCN(Cc1ccc(F)cc1)C2=O`, the “% Inhibition” value is reported as -4% and the Z score is on record as 0.37.
The corresponding values for `CCn1ccnc1C1CCCCN1S(=O)(=O)N(C)CC(C)C#N` (stereo not drawn) are 2% and -0.29.
`C[C@H](Nc1nc(C(F)(F)F)ns1)c1cccnc1`: the “% Inhibition” value is listed as -8% and the Z score was found to be 0.78.
Take `Clc1ccc2c(-c3cccc(CO[C@H]4CCOC4)c3)cnn2c1`: the “% Inhibition” value is given as -3% and the Z score is 0.43.
The corresponding values for `COc1ccc(CN(C)[C@@H](C)c2ccncn2)cn1` are -18% and 2.37.
The like results for `Cc1ncccc1C(=O)NCC1(N2CCCC2)CCCC1` were, in that order, -18% and 1.75.
The corresponding values for `COc1cccc([C@H]2CC(=O)Nc3c2c(=O)[nH]n3C(C)C)c1` are -14% and 1.79.
`O=C(CN1C(=O)[C@@H]2C[C@H](O)CN2C(=O)c2ccccc21)Nc1ccc(Cl)c(Cl)c1`: the “% Inhibition” value is listed as 1% and the Z score was -0.15.
On to `Cc1ccc(C(=O)NCc2ccc3c(c2)CCN3C(=O)c2ccccc2)cc1`, for which the “% Inhibition” value is recorded as -5% and the Z score was determined as 1.02.
In the case of `O=C1[C@@H]2C[C@@H](CN2C(=O)c2cnccn2)Oc2ccccc2N1Cc1cccnc1`, the “% Inhibition” value stood at 0% and the Z score is on record as 0.01.
The like results for `O=C1Nc2ccccc2Oc2cc(NC3CCCC3)c(S(=O)(=O)N3CCOCC3)cc21` were, in that order, -10% and 1.36.
The corresponding values for `COc1ccc(CCNC(=O)C2CC(c3ccccc3)CN(C(=O)c3ccccc3F)C2)cc1` (stereo not drawn) are -7% and 0.83.
In the case of `O=C1c2ccccc2C(=O)N1c1ccc(-n2nncc2-c2ccc(Cl)cc2)cc1`, the “% Inhibition” value was -4% and the Z score stood at 0.9.
The corresponding values for `Cc1c(F)cccc1NC(=O)C1CCN(C2CC2)CC1` are -7% and 0.81.
The corresponding values for `CC#CCCNC(=O)c1cccnc1C` are -5% and 0.66.
As to `Cc1nc(CN(CC#N)S(=O)(=O)N(C)C)sc1C`, the “% Inhibition” value is on record as -10% and the Z score was 1.02.
As for `N#Cc1cccc(-c2n[nH]c3c2CN(c2ccc(-c4ccccc4)nn2)CC3)c1`, the “% Inhibition” value was determined as 29% and the Z score was -15.5.
For `Cc1ccccc1C(=O)N1[C@H](C(=O)N2CCCC2)COC12CCN(C(=O)c1ccco1)CC2`, the “% Inhibition” value is -12% and the Z score was determined as 1.7.
Take `COC(=O)C12CCCC1CN(CC(C)c1ccccc1)C2` (stereo not drawn): the “% Inhibition” value is -12% and the Z score stood at 1.49.
In the case of `CN(C)c1ncc(CNc2cccc3oc(C(F)(F)F)nc23)cn1`, the “% Inhibition” value is given as 3% and the Z score was -0.44.
The corresponding values for `CCN1CC(=O)N[C@H]2CN(C(=O)CO)CC[C@@H]2OCc2cccc(c2)Oc2cc(OC(C)C)cc(c2)C1=O` are -9% and 1.68.
As for `CCn1c(N2CCC[C@H](C(=O)NCC3CCN(Cc4cccc(C)c4)CC3)C2)cc(=O)n(C)c1=O`, the “% Inhibition” value is reported as -2% and the Z score came to 0.38.
Turning to `c1ccc(CCc2nc(CN3CCC4(C3)OCCO4)cs2)cc1`, the “% Inhibition” value is recorded as -10% and the Z score is on record as 1.04.
The like results for `Cc1sc(-c2ccno2)cc1S(=O)(=O)Nc1cccc(C(F)(F)F)c1` were, in that order, 2% and -0.21.

As a reminder, the % Inhibition is the relative decrease from the control value, in per cent.
